About 2,200 (0.71%) of roughly 310,000 compounds showed an effect of 50% or more. The effect is printed as a negative number. Some of the results follow.
The compounds below were run against human ether-à-go-go-related gene (hERG) potassium channel (human, UniProt Q12809) (assay: primary screen, population patch clamp on CHO cells stably expressing hERG).
Chain of human ether-à-go-go-related gene (hERG) potassium channel (Q12809 whole entry, looked up): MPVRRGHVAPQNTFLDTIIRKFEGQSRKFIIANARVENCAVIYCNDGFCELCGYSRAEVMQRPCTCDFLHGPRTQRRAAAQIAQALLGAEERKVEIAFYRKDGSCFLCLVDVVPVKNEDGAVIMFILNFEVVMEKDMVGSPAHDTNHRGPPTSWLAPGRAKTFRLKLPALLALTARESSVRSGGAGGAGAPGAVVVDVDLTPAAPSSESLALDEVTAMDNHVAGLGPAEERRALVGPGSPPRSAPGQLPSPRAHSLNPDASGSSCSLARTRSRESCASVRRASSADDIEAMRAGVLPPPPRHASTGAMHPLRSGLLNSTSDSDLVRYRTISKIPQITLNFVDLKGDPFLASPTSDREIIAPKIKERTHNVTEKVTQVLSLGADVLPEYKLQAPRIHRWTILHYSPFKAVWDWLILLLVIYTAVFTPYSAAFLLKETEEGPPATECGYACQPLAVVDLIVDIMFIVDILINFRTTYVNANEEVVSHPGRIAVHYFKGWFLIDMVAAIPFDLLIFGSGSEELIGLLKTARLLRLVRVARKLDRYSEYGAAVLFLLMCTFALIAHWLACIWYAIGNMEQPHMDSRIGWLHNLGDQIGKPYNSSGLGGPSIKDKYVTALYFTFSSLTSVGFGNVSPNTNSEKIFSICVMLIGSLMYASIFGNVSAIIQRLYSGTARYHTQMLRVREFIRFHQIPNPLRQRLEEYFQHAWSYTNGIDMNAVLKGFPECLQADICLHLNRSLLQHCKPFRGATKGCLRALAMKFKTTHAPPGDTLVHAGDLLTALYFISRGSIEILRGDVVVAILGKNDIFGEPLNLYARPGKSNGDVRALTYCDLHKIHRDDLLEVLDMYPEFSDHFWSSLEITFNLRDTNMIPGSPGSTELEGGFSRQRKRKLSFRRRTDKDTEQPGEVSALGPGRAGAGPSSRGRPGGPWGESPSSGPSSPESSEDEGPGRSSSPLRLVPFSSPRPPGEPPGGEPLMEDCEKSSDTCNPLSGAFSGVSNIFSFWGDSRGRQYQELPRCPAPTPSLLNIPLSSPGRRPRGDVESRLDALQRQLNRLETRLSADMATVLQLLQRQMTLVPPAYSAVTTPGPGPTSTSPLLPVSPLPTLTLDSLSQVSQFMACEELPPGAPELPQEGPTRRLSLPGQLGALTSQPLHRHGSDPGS

**Q.** `O=C(O)c1ccc(-c2nnc(-c3cccc(Br)c3)o2)cc1` was tested. Which “hERG current change (%, negative = inhibition) at 1uM” value did it give?
**A.** The value was 12.8%.

**Q.** `O=P(N[C@@H](c1ccccc1)[C@@H]1C[C@H]1CO)(c1ccccc1)c1ccccc1` was tested. Which “hERG current change (%, negative = inhibition) at 1uM” value did it give?
**A.** The value was 6.42%.

**Q.** With `COc1ccc(OC)c2[nH]c(=O)c(CCNS(=O)(=O)c3ccc(C)cc3)cc12` as the compound, how does the “hERG current change (%, negative = inhibition) at 1uM” value read?
**A.** Its value is -15.5%.

**Q.** For `CC1(OC(=O)CCc2ccccc2)C(=O)C=C2C=C(c3ccc(C#N)cc3)N(CC3CC3)C=C2C1=O` (centres unmarked), which “hERG current change (%, negative = inhibition) at 1uM” value is on record?
**A.** Its value is 0.927%.

**Q.** How did the “hERG current change (%, negative = inhibition) at 1uM” value turn out when `Cc1cc(N2CCN(C(=O)/C=C/C(=O)O)CC2)c2ccccc2n1` was run?
**A.** Its value is 23%.

**Q.** How did the “hERG current change (%, negative = inhibition) at 1uM” value turn out when `O=C(CC1C(=O)NCCN1CC1CCCCC1)NCc1ccc(F)cc1` (centres unmarked) was run?
**A.** Its value is -0.382%.

**Q.** With `Cc1cccc(C(=O)NCCC(=O)Nc2ccc(C#N)cc2)c1` as the compound, how does the “hERG current change (%, negative = inhibition) at 1uM” value read?
**A.** Its value is 18.4%.

**Q.** `Cc1cccn2c(=O)nc(SCC(=O)N3CCCC3)nc12` was tested. Which “hERG current change (%, negative = inhibition) at 1uM” value did it give?
**A.** Its value is -2.45%.

**Q.** With `COc1ccc(/C=C2\CCC(C3CCCC3)C2=O)cc1Cn1nc(C)cc1C` (centres unmarked) as the compound, how does the “hERG current change (%, negative = inhibition) at 1uM” value read?
**A.** The value was 7.9%.

**Q.** `CC(=O)NC(CC(=O)Nc1ccc2c(c1)OCCO2)c1ccccc1` (centres unmarked) was tested. Which “hERG current change (%, negative = inhibition) at 1uM” value did it give?
**A.** The value was 11.2%.

**Q.** `Oc1cc(Cl)ccc1Oc1ccc(Cl)cc1Cl` was tested. Which “hERG current change (%, negative = inhibition) at 1uM” value did it give?
**A.** Its value is 8.1%.

**Q.** For `CCN(CC)c1ccc(CN2CC=C(c3ccc(F)cc3)CC2)cc1`, which “hERG current change (%, negative = inhibition) at 1uM” value is on record?
**A.** The value was 3.12%.

**Q.** With `CCN(CC)S(=O)(=O)c1ccc(N2CCN(S(=O)(=O)c3ccccc3C#N)CC2)nc1` as the compound, how does the “hERG current change (%, negative = inhibition) at 1uM” value read?
**A.** The value was 4.48%.

**Q.** With `COc1cc(-c2c(C#N)c(N)nc(SCc3ccncc3)c2C#N)cc(OC)c1OC` as the compound, how does the “hERG current change (%, negative = inhibition) at 1uM” value read?
**A.** Its value is 2.82%.

**Q.** `Cc1cccc(Nc2ncnc3onc(-c4cccc(Cl)c4)c23)c1C` was tested. Which “hERG current change (%, negative = inhibition) at 1uM” value did it give?
**A.** The value was 1.98%.

**Q.** `Cc1ccc2nc(Cl)c(/C=N/NC(=O)CN3CCOCC3)cc2c1` was tested. Which “hERG current change (%, negative = inhibition) at 1uM” value did it give?
**A.** Its value is 7.61%.

**Q.** `O=C(CSCc1ccco1)c1ccc(Cl)s1` was tested. Which “hERG current change (%, negative = inhibition) at 1uM” value did it give?
**A.** The value was 13.2%.

**Q.** `CC(=O)Nc1ccc(C(=O)Cn2c3[n+](c4c(F)c(F)ccc42)CCCCC3)cc1.[Br-]` was tested. Which “hERG current change (%, negative = inhibition) at 1uM” value did it give?
**A.** The value was 7.9%.

**Q.** For `O=C(c1cc2ncccn2n1)N1CCc2c([nH]c3ccccc23)C1c1ccccc1F` (centres unmarked), which “hERG current change (%, negative = inhibition) at 1uM” value is on record?
**A.** Its value is 12.1%.

**Q.** `CCCN(CCO)Cc1ccc2ccccc2c1` was tested. Which “hERG current change (%, negative = inhibition) at 1uM” value did it give?
**A.** The value was 2.91%.

**Q.** With `CCOC(=O)c1ccc(NC(=S)N(CCCN2CCCCCC2)Cc2ccco2)cc1` as the compound, how does the “hERG current change (%, negative = inhibition) at 1uM” value read?
**A.** The value was -31.7%.

**Q.** How did the “hERG current change (%, negative = inhibition) at 1uM” value turn out when `O=C1C(NS(=O)(=O)c2ccc(Cl)cc2)=C(N2CCCCC2)C(=O)c2ccccc21` was run?
**A.** Its value is 5.63%.

**Q.** For `CC1(C)NC(=O)N(CC(=O)OCC(=O)c2ccc(F)cc2)C1=O`, which “hERG current change (%, negative = inhibition) at 1uM” value is on record?
**A.** Its value is -1.22%.

**Q.** How did the “hERG current change (%, negative = inhibition) at 1uM” value turn out when `CCC(=O)Nc1cccc(NC(=O)c2cccnc2)c1` was run?
**A.** The value was 11.6%.

**Q.** How did the “hERG current change (%, negative = inhibition) at 1uM” value turn out when `COc1ccc(CCNC(=O)COC(=O)CCC(=O)c2ccc(F)cc2)cc1` was run?
**A.** The value was 11.4%.

**Q.** How did the “hERG current change (%, negative = inhibition) at 1uM” value turn out when `COc1cccc(CC(=O)N(C)C2CCCN(Cc3ccccc3F)C2)c1` (centres unmarked) was run?
**A.** The value was 8.16%.

**Q.** For `CC(C)=CCc1cc([C@@H]2COc3c(ccc4c3C=CC(C)(C)O4)C2)c(O)cc1O`, which “hERG current change (%, negative = inhibition) at 1uM” value is on record?
**A.** Its value is 4.34%.

**Q.** With `COc1ccc(CCNC(=O)COC(=O)/C=C/c2cccs2)cc1` as the compound, how does the “hERG current change (%, negative = inhibition) at 1uM” value read?
**A.** The value was 22.4%.

**Q.** Which “hERG current change (%, negative = inhibition) at 1uM” value does the source give for `COC(=O)c1ccc(CSc2ncnc3c2nnn3-c2ccc(OC)cc2)o1` here?
**A.** The value was 5.87%.

**Q.** For `Cc1cc(C)cc(NC(=O)[C@H](Cc2c[nH]c3ccccc23)NC(=O)[C@@H]2Cc3ccccc3CN2)c1`, which “hERG current change (%, negative = inhibition) at 1uM” value is on record?
**A.** The value was 10.2%.

**Q.** `O=C(c1cc(Cl)ccc1F)N1CCCC(Nc2ccc3c(c2)OCCO3)C1` (centres unmarked) was tested. Which “hERG current change (%, negative = inhibition) at 1uM” value did it give?
**A.** The value was 0.817%.

**Q.** With `CN(CC(=O)Nc1ccc(Cl)c(C(F)(F)F)c1)C(=O)CCNC(=O)c1ccco1` as the compound, how does the “hERG current change (%, negative = inhibition) at 1uM” value read?
**A.** Its value is -4.26%.

**Q.** With `COc1cc(OC)c(C2N(c3cc(C)on3)C(=O)C3CCCN32)cc1OC` (centres unmarked) as the compound, how does the “hERG current change (%, negative = inhibition) at 1uM” value read?
**A.** The value was 15.5%.

**Q.** For `CC(=O)OCC(OC(C)=O)C(OC(C)=O)C(OC(C)=O)C(=O)Nc1ccccc1` (centres unmarked), which “hERG current change (%, negative = inhibition) at 1uM” value is on record?
**A.** Its value is 12.1%.

**Q.** For `CCOC(=O)C1CCCN(C(=O)c2cn(C)c(=O)c3cc(OC)c(OC)cc23)C1` (centres unmarked), which “hERG current change (%, negative = inhibition) at 1uM” value is on record?
**A.** The value was 10.2%.

**Q.** How did the “hERG current change (%, negative = inhibition) at 1uM” value turn out when `Cc1cccc(C)c1NC(=O)CSc1nc(C)c(CC(=O)c2ccc(Br)cc2)c(C)c1C#N` was run?
**A.** The value was 4.03%.

**Q.** For `Cc1ccccc1Nc1nc(N)nc(CN2CCN(C(=O)c3ccccc3)CC2)n1`, which “hERG current change (%, negative = inhibition) at 1uM” value is on record?
**A.** Its value is -1.31%.

**Q.** For `CCc1ccc(NC(=O)N(C2CCC(C)CC2)C2CCN(C(C)=O)CC2)cc1` (centres unmarked), which “hERG current change (%, negative = inhibition) at 1uM” value is on record?
**A.** The value was 7.35%.

**Q.** `CC(C)(C)NC(=O)CSc1nnc(SCC(=O)NC(C)(C)C)s1` was tested. Which “hERG current change (%, negative = inhibition) at 1uM” value did it give?
**A.** The value was 29.9%.

**Q.** Which “hERG current change (%, negative = inhibition) at 1uM” value does the source give for `OC1(c2ccccc2F)CCN(Cc2nnc(-c3ccccc3)o2)CC1` here?
**A.** The value was 11%.

**Q.** With `Cc1cccc(C)c1NC(=O)Cn1nnc(C(=O)Nc2ccc(F)cc2F)c1N` as the compound, how does the “hERG current change (%, negative = inhibition) at 1uM” value read?
**A.** Its value is 14.4%.

**Q.** How did the “hERG current change (%, negative = inhibition) at 1uM” value turn out when `CC(C)CNC(=O)CN(C)S(=O)(=O)c1ccc(F)cc1` was run?
**A.** The value was 3.41%.

**Q.** `CC(C)(C)N(Cc1ccccc1)C(=O)COC(=O)c1cccc([N+](=O)[O-])c1` was tested. Which “hERG current change (%, negative = inhibition) at 1uM” value did it give?
**A.** The value was 4%.

**Q.** With `c1ccc(SCc2nc3ccccc3[nH]2)nc1` as the compound, how does the “hERG current change (%, negative = inhibition) at 1uM” value read?
**A.** Its value is 20.3%.
